Whole data set: some 33,000 sequences, median “E-score (-0.5 to 0.5)” near -0.054, cut for the highest 2% near 0.35. The list shows a part of the results.
target: T1, Stb5 (UniProt P38699); test: PBM E-score (8-mer binding enrichment) (E-score (-0.5 to 0.5)); higher = stronger / more preferred TF binding; most listed sequences are background and not binding sites; settings: protein concentration: 200 nM; construct: GST-full length
T1 sequence: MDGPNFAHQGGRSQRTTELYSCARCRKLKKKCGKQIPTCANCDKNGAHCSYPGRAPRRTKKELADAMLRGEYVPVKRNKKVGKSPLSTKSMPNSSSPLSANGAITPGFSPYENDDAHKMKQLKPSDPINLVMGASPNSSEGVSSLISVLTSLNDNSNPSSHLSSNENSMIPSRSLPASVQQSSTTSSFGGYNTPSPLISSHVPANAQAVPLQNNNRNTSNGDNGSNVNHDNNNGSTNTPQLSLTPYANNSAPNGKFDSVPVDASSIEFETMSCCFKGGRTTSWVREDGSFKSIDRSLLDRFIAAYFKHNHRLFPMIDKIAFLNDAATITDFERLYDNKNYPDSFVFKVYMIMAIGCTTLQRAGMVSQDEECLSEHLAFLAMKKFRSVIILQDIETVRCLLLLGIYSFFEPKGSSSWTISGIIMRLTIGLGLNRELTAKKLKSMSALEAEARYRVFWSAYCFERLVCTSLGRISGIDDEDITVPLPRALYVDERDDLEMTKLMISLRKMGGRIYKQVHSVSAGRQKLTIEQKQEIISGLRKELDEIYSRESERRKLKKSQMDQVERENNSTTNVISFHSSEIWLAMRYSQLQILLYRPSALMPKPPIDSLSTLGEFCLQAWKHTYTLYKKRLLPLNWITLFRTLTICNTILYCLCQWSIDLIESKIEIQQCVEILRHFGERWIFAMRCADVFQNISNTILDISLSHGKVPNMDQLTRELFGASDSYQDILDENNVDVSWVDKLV
Method: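 Universal 'all 10-mer' protein binding microarrays (Agilent AMADID 015681) probed with GST-tagged S. cerevisiae TFs (full-length or DBD) made by in vitro transcription/translation (PURExpress), about 100-200 nM. Bound TF was detected with fluorescent anti-GST. Each ungapped 8-mer (which stands for itself and its reverse complement) is scored by the PBM enrichment score (E-score), a modified Wilcoxon-Mann-Whitney statistic from -0.5 to +0.5, computed with the Universal PBM Analysis Suite. Scale: above 0.35 generally sequence-specific binding.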

Sequence	PBM E-score
CTACTGGC	-0.167
CTGGCCCC	-0.0201
AACACTCG	-0.0704
GGTCCACA	-0.0714
CTCTGAGC	-0.3
AAAGGACC	0.212
ATGACCAA	-0.0477
CTCCAGCA	-0.259
TATCCCAA	-0.00571
ACGTTACG	-0.0767
ACGACACG	0.0906
AGACTTAG	-0.122
GTAACCCA	-0.177
AGGAACAA	-0.0803
ACTAAGAA	-0.0691
TATGAGGA	-0.186
AGTTCGGC	0.0437
TACATTGA	-0.111
CATCGTAG	-0.138
CCTAGTTA	0.141
CCCACTCA	-0.26
GGCCATAC	0.157
ACGAGTCC	0.00708
GGACCAAA	0.209
ACGCTTAC	-0.201

Sequence	PBM E-score
CATATCAC	0.0389
ATTGTAGC	0.0323
ATCTATCC	0.143
AGGTATCA	-0.119
GCGGGCTA	0.218
CCGTACTA	0.18
ACGAGCAT	-0.346
AAACCCCG	0.476
GATTACTA	0.106
CCAGGGTA	-0.105
CACTAGCG	0.0813
CAAGCCTA	-0.272
CTTTGGAC	-0.0747
ATTCTCGG	0.0669
GTCACCAC	0.0379
ACCAACGA	-0.123
AGCTTTCG	-0.116
CAAGGTCC	0.127
TCCCGAGA	0.0599
GCACAAGA	-0.125
ACTCTCCA	-0.0128
ATCCCTTC	-0.136
AACGACGC	-0.0247
CAACCCGC	0.169
CGCCCAAA	0.0165

Sequence	PBM E-score
CGCTGAAC	-0.138
GCCAGTGA	-0.214
ACATCACC	0.158
ACAATATG	0.0599
CCATAAAA	-0.0329
CACTTACG	0.034
AACGCCTG	-0.0861
CTTGAACC	-0.0984
AATATATT	0.208
GACAGCCA	-0.339
TCACAGAA	-0.147
ACAAAATA	-0.0759
CCGAACAG	0.208
CGTGTAGC	-0.209
GATGAATC	-0.198
ACTCTAAC	-0.0984
CTATACTC	-0.00519
AGCCGCCC	0.144
CTCGCGGC	0.164
AGTCGCAC	-0.058
AATTCTTG	-0.282
CGATTCCC	0.035
AGTGAGTG	-0.0629
CAGGGTAC	-0.21
CAGCCGGC	0.217

Sequence	PBM E-score
AACCCGAT	0.222
GGGAGTGA	-0.0152
AGAAGGCT	-0.363
CTAACCAA	-0.133
CCTGACCC	0.0495
TACGGTAA	0.162
CAGCGCTA	0.078
CCTCGAAG	-0.101
AGGTTATA	-0.0254
ATAAAGTC	0.183
CCGTAGTA	-0.0189
GGCTTCAA	-0.102
GCTGAACA	-0.0963
ATACTGAT	-0.202
CCTTCTCA	-0.135
CTTTGTGA	-0.118
ACCCGGCC	0.188
AAAGAGTA	-0.0917
AGCTTTGA	0.058
CGGAAGTC	0.204
CCTGAAAG	-0.264
GATTGGTA	-0.149
AGGCAACG	-0.101
GACCCCTC	-0.131
GACCACAC	-0.152

Sequence	PBM E-score
GCGCGCGC	0.19
GGCCCTAC	0.21
AGGCTTCG	0.0448
GATCTTAA	0.024
ACGCTCCG	0.174
ACGAGATC	-0.0495
GCACGCGC	0.0505
AGTAATTG	-0.0651
GTTAAGGA	0.0417
ACTGGGCT	-0.235
AGACTGAC	-0.166
CTTGCCTA	-0.21
ATGTATAG	0.0955
ATTGCCTA	-0.113
CGCGTCCC	-0.065
CTGCGTCA	-0.121
CACCGGCA	0.377
AGTTCGTC	-0.0675
AACTTTAG	-0.0896
AGGCGGAC	0.356
AGTTACGA	-0.124
CGACATGC	0.0496
CGAGGCGA	-0.265
AGCCCTCC	-0.28
AATACACG	-0.157

Sequence	PBM E-score
GCTGAAGC	-0.195
AAGCTCAA	-0.18
CTCTCTTC	-0.237
GATCTTAC	0.124
GATATTAA	0.26
AGCGAGCG	0.076
CTTCAAGA	-0.168
GACACGTC	-0.0123
ATCTCCTA	-0.138
CTGAGCCC	-0.0863
CTCTCTAA	-0.297
ACTACACC	0.128
CAATAGAA	-0.16
AGGTCTCC	-0.169
ACTACGGG	0.206
GCCTGAGC	-0.0454
ACGTGCAC	-0.21
ATGGGGGG	-0.236
GTGGCAAA	0.095
GAGCATTA	-0.15
AGGAACGC	-0.0957
CTTTCGGA	0.225
AATTTGGG	-0.182
ACTGCGAG	0.0445
AGTGCCTA	-0.153

Sequence	PBM E-score
AACTCGAC	-0.133
AGAGCGCA	0.056
ATCCCAAT	-0.241
AAGAGGGT	-0.176
AGTCAATC	-0.075
CTAGCATC	-0.244
ACAACTGT	-0.175
AAGAGCTC	-0.143
CGGGACGC	0.187
ACCCGATC	0.19
AAGTGCAG	-0.303
CACCTAGG	0.0145
GAGAATAC	0.0268
CATGACAA	-0.264
CAGCCAGG	-0.311
CCTCTAGC	-0.105
ACGCCATA	-0.191
CCGCATGA	0.0347
AAGCCGCG	0.287
CCCCGTCC	0.315
GGTCTTAA	0.355
ACTGCCAG	-0.203

— the supplement of paper PMC3334620
